Test results: PubChem BioAssay AID651820 (National Center for Advancing Translational Sciences (NCATS), 2012)
Several values for one entry are separate records, joined by “and”; a condition that tells them apart may be missing. Equal values may be shown once. In all, about 340,000 compounds went through this assay and about 12,000 (3.5%) were called active. The shares of active, inactive and inconclusive entries below differ from those in the screen. Calls come from the whole dose curve; as a rule, active = well fitted inhibition curve with a large enough effect; inconclusive = small, poorly fitted or top-dose-only effect, or another doubt; inactive = no such curve, though single readings can be large or run the other way. Potencies of inconclusive entries are doubtful fits and often do not repeat.

Test: qHTS Assay for Inhibitors of Hepatitis C Virus (HCV)
Details: Huh7.5.1 HCVcc-Cre (HCVcc is cell-culture hepatitis C virus) infection, luciferase reporter, 44 h; activity change, negative = inhibition: at 41.8 µM (top of the series) unless noted
How it was run: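 Luciferase read-out (15 sec integration) after a 15 min room-temperature substrate step quantifies HCVcc-Cre infection. Cells, 1,000 per well, had compound added 4 h post-plating, then virus at ~0.5 moi, and were cultured 44 h.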
% is set by controls: 0 for no effect and ±100 for the full control effect; potency is the fitted concentration of half-maximal effect; tags give direction and shape of the fitted curve.

Row | SMILES | activity change, negative = inhibition | Potency
1 | CC(=O)Nc1ccc(S(=O)(=O)NCCC(=O)OCC(=O)c2cc(C)ccc2C)cc1 | inactive: 35.3% | 
2 | C=C(C)Cn1c(-c2ccccc2)nc2ccccc21 |  | inconclusive: 14.1 µM [inhibitor, single point]
3 | COc1cc(-c2nnc(SCC(=O)N3c4ccccc4Sc4ccccc43)o2)cc(OC)c1OC |  | inconclusive: 3.16 µM [inhibitor, single point]
4 | Cc1ccc(S(=O)(=O)N(Cc2ccccc2)c2ccccc2C(=O)Nc2ccccc2C(=O)NCc2ccco2)cc1 | inactive: 7.71% | 
5 | CC(C)N(Cc1nc(-c2ccccc2)no1)C(=O)c1ccc2c(c1)OCO2 |  | inconclusive: 11.2 µM [inhibitor, partial curve]
6 | NC(=O)c1ccc(NC(=O)CSc2nnc(C3CC3)n2C2CC2)cc1 | inactive: -15.2% | 
7 | CCSc1nnc(NC(=O)Cc2cccc(OC)c2)s1 |  | inconclusive: 22.4 µM [inhibitor, single point]
8 | CC(C)N(C(=O)CSc1nc(COc2ccccc2)nc2ccccc12)C(C)C |  | inconclusive: 14.1 µM [inhibitor, single point]
9 | FC(F)C(F)(F)c1cc(-c2ccc(Cl)cc2)n[nH]1 | inconclusive: -52.8% [inhibitor] | 
10 | COc1ccc2c(c1)OC[C@H]1[C@H]2N2C(=O)c3cc(Cl)ccc3NC(=O)[C@@]2(C)[C@H]1c1ccccc1 |  | inconclusive: 28.2 µM [inhibitor, single point]
11 | CCOC(=O)C1(Cc2ccccc2C#N)CCCCC1=O (stereo not given) | inactive: -4.28% | 
12 | Cc1ccc(-c2csc3ncn(CC(=O)NCC(c4ccco4)N4CCCC4)c(=O)c23)cc1 (stereo not given) |  | inconclusive: 22.4 µM [inhibitor, single point]
13 | CC(=O)c1ccc2c(c1)N(CCCN1CCC(CCO)CC1)c1ccccc1S2 |  | active: 3.16 µM
14 | C=CCN1C(=O)/C(=C2/Sc3ccc(OC)cc3N2C)SC1=Nc1ccccc1 |  | inconclusive: 8.91 µM [inhibitor, partial curve]
15 | O=c1[nH]c(/C=C/c2cccc3ccccc23)nc2ccccc12 |  | inconclusive: 10 µM [inhibitor, partial curve]
16 | CC[C@]12c3[nH]c4cc(-c5ccco5)ccc4c3CCN1C(=O)[C@@H](CC(=O)NCc1cccc(C(F)(F)F)c1)C[C@@H]2C(=O)N1CCN(C(=O)C2CC2)CC1 |  | inconclusive: 11.2 µM [inhibitor, single point]
17 | Nn1c(SCC(=O)Nc2nccs2)nnc1C1CC1 | inactive: 13.7% | 
18 | O=C(C[C@@H]1C/C=C\CC[C@@H](Cc2ccc(F)cc2)C(=O)OC[C@@H](Cc2ccccc2)NC1=O)NCCO |  | inconclusive: 12.6 µM [inhibitor, partial curve]
19 | O=c1cc(SCc2ccc(Cl)cc2Cl)nc[nH]1 | inactive: 6.35% | 
20 | O=C(c1ccc2c(c1)N(Cc1ccccc1)CCS2)N1CCCCC1 |  | inconclusive: 35.5 µM [inhibitor, single point]
21 | COc1ccc(OC)c(Nc2c3c(nc4ccccc24)CCC3)c1 |  | inconclusive: 20 µM [inhibitor, partial curve, poor fit]
22 | COc1ccc(N2CCN(S(=O)(=O)CCNC(=O)/C=C/c3ccc4c(c3)OCO4)CC2)cc1 |  | inconclusive: 2.51 µM [inhibitor, single point]
23 | CCCCc1ccc(NC(=O)Nc2cnccn2)cc1 |  | inconclusive: 31.6 µM [inhibitor, single point]
24 | Cc1cc(C)c2nc(SCC(=O)N(C)C3CCS(=O)(=O)C3)cc(C)c2c1 (stereo not given) |  | inconclusive: 10 µM [inhibitor, partial curve, poor fit]

Row | SMILES | activity change, negative = inhibition | Potency
25 | O=C1c2ccc([N+](=O)[O-])cc2C(=O)N1Cc1cccnc1 | inactive: 22.2% | 
26 | CC(/C=C/c1ccccc1)=N\NC(=O)CCc1ccccc1 |  | inconclusive: 31.6 µM [inhibitor, single point]
27 | Oc1cccc2ccc[n+](CC(O)Cn3c4ccccc4c4ccccc43)c12 (stereo not given) |  | active: 22.4 µM
28 | NC(=O)c1cc(Br)cc2c3c([nH]c12)CCCC3 |  | inconclusive: 31.6 µM [inhibitor, single point]
29 | COc1ccc(-c2[nH]c(-c3ccc4c(c3)OCO4)nc2-c2ccccc2)cc1 |  | inconclusive: 7.94 µM [inhibitor, single point]
30 | Oc1ccc(N=Nc2ccc3c(c2)OCCO3)c2ncccc12 |  | inconclusive: 31.6 µM [inhibitor, single point]
31 | FC(F)(F)c1nnc2c(Sc3ccccc3)nc3ccc(Cl)cc3n12 |  | active: 11.2 µM
32 | O=C(O)c1ccc(S(=O)(=O)N2CCC(Cc3ccccc3)CC2)cc1 | inactive: 17% | 
33 | COc1ccc(NC(=O)c2cc3c(=O)n(C)c4ccccc4c3s2)cc1OC |  | inconclusive: 6.31 µM [inhibitor, partial curve]
34 | COc1ccc(CN2CCN(C(=O)c3ccc(S(=O)(=O)NCc4ccco4)cc3)CC2)cc1F |  | inconclusive: 4.47 µM [inhibitor, full curve]
35 | O=[N+]([O-])c1cc([N+](=O)[O-])c(N2CCOCC2)cc1NCc1ccccc1 |  | inconclusive: 25.1 µM [inhibitor, partial curve]
36 | CCOC(=O)c1cc(C#N)c(SCC(=O)Nc2ccc(C(C)=O)cc2)[nH]c1=O |  | inconclusive: 2.82 µM [inhibitor, partial curve]
37 | CNC(=O)CSc1nc(N)c2c3c(sc2n1)CCC3 | inactive: -5.6% | 
38 | Cc1cc(C)cc(NC(=O)CCN2CCOCC2)c1 | inactive: 13.1% | 
39 | C(=C\c1ccccc1)/C=N/Nc1nc(N2CCOCC2)nc(N2CCOCC2)n1 | inactive: -11.3% | 
40 | C[C@@H](NC(=O)c1ncn(C)c1C(=O)N[C@H](C)c1ccccc1)c1ccccc1 |  | inconclusive: 10 µM [inhibitor, partial curve]
41 | Cc1ccc(N2C(=O)c3ccc(N)cc3C2=O)cc1 | inactive: -12.1% | 
42 | Cc1ccc(Oc2c(C=O)c3ccccc3n2C)cc1 |  | inconclusive: 14.1 µM [inhibitor, single point]
43 | C/C(=N\NC(N)=S)C1C2C3CC4C5CC(C42)C1C53 (stereo not given) |  | inconclusive: 14.1 µM [inhibitor, single point]
44 | O=C(O)CNS(=O)(=O)c1ccc(F)cc1 | inactive: -0.184% | 
45 | CCOc1ccc(NC(=O)c2ccc(NS(=O)(=O)c3cccc4cccnc34)cc2)cc1 |  | inconclusive: 10 µM [inhibitor, partial curve]
46 | COc1ccc(N=C2S/C(=C\c3ccc(C)s3)C(=O)N2CC(C)C)cc1 | inactive: 6.67% | 
47 | CCOC(=O)c1ccc2[nH]c3c(c2c1)CCCC3O (stereo not given) |  | active: 10 µM
48 | O=C(CCS(=O)(=O)Cc1ccccc1)Nc1ncc([N+](=O)[O-])s1 |  | inconclusive: 22.4 µM [inhibitor, single point]

Row | SMILES | activity change, negative = inhibition | Potency
49 | O=C(Nc1ccc2[nH]ccc2c1)c1ccc(F)cc1 | inactive: -10.5% | 
50 | COc1ccc2ccc(=O)oc2c1CC(=O)C(C)C |  | active: 4.47 µM
51 | CCCCn1c(N)c(N(CC(C)C)C(=O)CSc2ccc3c(c2)OCCO3)c(=O)[nH]c1=O | inactive: 16.2% | 
52 | CCOC(=O)c1c(NC2=NS(=O)(=O)c3ccccc32)sc2c1CCC(C)C2 (stereo not given) |  | inconclusive: 5.62 µM [inhibitor, partial curve]
53 | COc1cccc(NC(=O)CN(C)C(=O)c2ccc(-c3cccc(C(F)(F)F)c3)o2)c1 |  | inconclusive: 31.6 µM [inhibitor, partial curve, poor fit]
54 | C/C(=N\Nc1nc2c(s1)CCCC2)c1ccc(Cl)cc1 | inactive: -24% | 
55 | Cc1ccc(CNC(=O)CN(c2cccc([N+](=O)[O-])c2)S(C)(=O)=O)cc1 | inactive: 8.84% | 
56 | Cc1ccccc1Nc1c(-c2ccccn2)nc2ccccn12 |  | inconclusive: 31.6 µM [inhibitor, single point]
57 | O=C1CN(C(=O)COC(=O)c2oc3ccccc3c2COc2ccccc2)c2ccccc2N1 |  | inconclusive: 2.82 µM [inhibitor, partial curve]
58 | Cc1ccc(NC(=O)CC(N)=S)cc1 | inactive: 8.77% | 
59 | C=CC[C@@H](CC(=O)N[C@@H](CO)Cc1ccccc1)C(=O)N[C@@H](COC(=O)[C@@H](CC=C)CC(=O)OC(C)(C)C)Cc1c[nH]c2ccccc12 |  | inconclusive: 31.6 µM [inhibitor, single point]
60 | O=[N+]([O-])c1cnc(Nc2ccc(Cl)cn2)c([N+](=O)[O-])c1 |  | active: 11.2 µM
61 | COc1ccc2nc3n(c(=O)c2c1)-c1ccc(Cl)cc1C(=O)NC3Cc1ccc(O)cc1 (stereo not given) |  | inconclusive: 31.6 µM [inhibitor, single point]
62 | CC(=O)Nc1ccc(NC(=O)CSc2ncnc3c2cnn3Cc2ccccc2)cc1 | inactive: -2.76% | 
63 | CCCCCn1c(=O)c(C(=O)Nc2ccccc2C)c(O)c2ccccc21 |  | inconclusive: 31.6 µM [inhibitor, single point]
64 | O=C(c1ccccc1)c1ccccc1N1C(=O)C=CC1=O |  | inconclusive: 31.6 µM [inhibitor, single point]
65 | CC(=O)c1ccc(OCC(O)CN2CCN(Cc3ccc4c(c3)OCO4)CC2)cc1 (stereo not given) |  | inactive and inconclusive: 14.1 µM [inhibitor, single point]
66 | CC1(C)Cc2ccccc2-c2nnc(SCC(=O)N3CCN(c4ccccc4)CC3)n21 |  | inconclusive: 11.2 µM [inhibitor, partial curve]
67 | COc1ccc(C2c3c(ccc4ccccc34)Oc3ncn4nc(Cc5ccccc5)nc4c32)cc1OC (stereo not given) |  | inconclusive: 31.6 µM [inhibitor, single point]
68 | Cc1ccn(-c2ccc([N+](=O)[O-])cc2)n1 | inactive: 5.89% | 
69 | COC(=O)c1cc(C)ccc1/C=C1/Cc2c(C)cc(C)cc2C1=O |  | inconclusive: 31.6 µM [inhibitor, partial curve]
70 | COc1ccc(CN2CCN(S(=O)(=O)c3ccc(C)cc3)CC2)cc1Br |  | active: 31.6 µM
